# Data from paper PMC12040169 (PLOS Biology, 2025).
# The other results are listed elsewhere or left out.
# Test system: T1, C. trachomatis L2/434/Bu expressing GFP (CTL2-GFP)
# T1 construct: L2/434/Bu GFP intracellular growth in HeLa cells
# Parameters: species or system HeLa; C. trachomatis total inclusion area by high-content imaging, normalised to DMSO
# Conditions: total inclusion area; 28.5 h, 10 µM; inhibitor
# Method in brief: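 High-content imaging followed the bulk GFP/resorufin measurement: fixed, Hoechst-stained cells were scored for GFP inclusions and host nuclei per well. Total inclusion area and count served as growth proxies, nuclei number as the viability proxy. MIC calculation matched the bulk assay.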
row,Structure (SMILES),% of control remaining
1,Cc1cc(CN(C)Cc2c(C)nc3ccc(Cl)cn23)n[nH]1 [CBK281913],96.0186
2,c1ccc([C@@H]2CN(Cc3ccccn3)C[C@H]2c2cc[nH]n2)cc1 [CBK285162],103.279
3,COc1ccc([C@H]2C3CCCCC3[C@@H]2NC(=O)C2CCCO2)cc1 (stereo partly shown) [CBK282990],91.6285
4,CCn1c(CN2CCC(c3noc(C)n3)CC2)nc2c(F)cccc21 [CBK304960],59.9749
5,Clc1ccc(CN2CCN(c3nccnc3OCc3cccnc3)CC2)cc1 [CBK083130T],88.6645
6,O=C(Nc1ccc(N2CCNCC2)nc1)c1ccccc1 [CBK028277T],95.7434
7,CCCCN(C)S(=O)(=O)NCc1cn2ccccc2n1 [CBK306329],80.9817
8,CSCCCNC(=O)N(Cc1cccnc1)Cc1ccc2c(c1)OCO2 [CBK159426],85.6704
9,Cc1nnc2sc(-c3ccc(NC(=S)NC(=O)c4cc5ccccc5o4)cc3)nn12 [CBK266795],84.2112
10,C=CCc1cccc(Cl)c1OCCN1CCNCC1 [CBK266071G],112.977
11,CC1CCc2c(sc3ncnc(OCC(=O)N4CCOCC4)c23)C1 (stereo not shown) [CBK306000],97.5481
12,[O-][N+]1=C2CCc3c(no[n+]3[O-])C2(O)CC1N1CCOCC1 (stereo not shown) [CBK261515],73.9651
13,O=C(CN1CCCN(c2nccs2)CC1)Nc1cc(Cl)ccc1Cl [CBK305921],120.146
14,CN(C)c1cccc(C(=O)Nc2cnc(-c3cccc(C(F)(F)F)c3)c(-c3cccnc3)n2)c1 [CBK036752],93.3665
15,COc1ccccc1C(NC(=O)N(C(C)C)C(C)C)c1nccn1C (stereo not shown) [CBK283834],103.624
16,O=C(CN1CCOCC1)N1CCN(CCc2ccccc2)CC1 [CBK200215],90.5311
17,CC(=O)N1CCC(N2CC[C@H](c3nnc(C(C)(C)C)o3)C2)CC1 [CBK289404],113.518
18,O=S(=O)(Nc1cccc2nonc12)c1ccccc1Br [CBK062577],91.5451
19,Cc1nc(C2CCCCN2C(=O)COc2ccccc2)ncc1C(=O)Nc1ccc(F)cc1 (stereo not shown) [CBK285871],102.267
20,O=C(O)c1ccccc1SC(C[N+](=O)[O-])c1ccccc1Cl (stereo not shown) [CBK097071],95.69
21,COc1nccnc1N1CCN(CCSC)CC1 [CBK084227],111.06
22,Cc1csc(C(Cc2cccs2)NC(=O)Cc2c(C)[nH]c(=O)[nH]c2=O)n1 (stereo not shown) [CBK286345],89.6949
23,C[C@H](Nc1nc(-c2ccc(-c3ccccc3)cc2)cnc1N)c1ccccc1 [CBK063760],103.852
24,Cc1cccc(CSc2nc3ncccc3[nH]2)c1 [CBK287963],79.9431
25,COC(=O)c1ccc(NS(=O)(=O)c2cc(Cl)sc2Cl)cc1 [CBK028684],81.2905
26,CS(=O)(=O)N1CCCc2cc(-c3csc(N4CCOCC4)n3)ccc21 [CBK305022],33.4678
27,O=C(CNc1n[nH]c(=O)[nH]c1=O)N/N=C/c1ccc(C(=O)O)cc1 [CBK263529],108.043

row,Structure (SMILES),% of control remaining
1,COc1cc([N+](=O)[O-])ccc1NC(=O)C1CC(Cl)=CCC1C(=O)O (stereo not shown) [CBK264956],135.846
2,CC(C)NC(=O)N[C@H]1CCN2C(=O)c3cc(-c4ccccc4)ccc3NC(=O)[C@H]12 [CBK289351],85.4521
3,CC(C)OC(=O)c1ccc(NC(=O)c2csc3c2CCCC3)cc1 [CBK058649],79.2401
4,CCOC(=O)c1nc(C)sc1-c1ccnn1S(C)(=O)=O [CBK007130],105.821
5,CC(C)C(c1nnnn1Cc1ccccc1)N1CCOCC1 (stereo not shown) [CBK028054],79.0525
6,CC(C)c1cc2cc3ccc(=O)oc3cc2o1 [CBK033944],71.5396
7,CCN1CC2(CCCN(Cc3nnc(-c4cccnc4)o3)C2)CCC1=O (stereo not shown) [CBK306881],61.6824
8,c1ccc2cc(CCN3CCC(Oc4nccnc4OCCN4CCOCC4)CC3)ccc2c1 [CBK082942T],92.2332
9,Cc1nn(Cc2ccc(Cl)cc2)c(C)c1NC(=O)CCC(=O)O [CBK287051],111.72
10,CC1CCCCN1C(=O)CCn1c(-c2ccncc2)cc2cccnc21 (stereo not shown) [CBK282689],109.97
11,CCOC(=O)c1sc2nc(N3CCOCC3)c3c(c2c1N)CCCC3 [CBK131870],81.2686
12,Cc1ncccc1-c1cc2cccnc2n1CCCNC(=O)C1CC1 [CBK282687],96.4618
13,COC(=O)c1ccccc1NC(=O)c1ccc(-n2cnnn2)cc1 [CBK058360],63.7501
14,O=C(Nc1ccc2c(c1)OCCO2)c1cc(S(=O)(=O)N2CCCCC2)c(Cl)cc1Cl [CBK265790],130.997
15,Cn1nc(CC(=O)Nc2ccc(OC(=O)c3ccccc3)cc2)c2ccccc2c1=O [CBK264057],110.713
16,COc1cccc(CCC(=O)Nc2cnc(-c3cccc(C(F)(F)F)c3)c(-c3cccnc3)n2)c1 [CBK036835],93.3595
17,Cc1ccc(-c2nnc(COC(=O)c3c4c(nc5ccccc35)CCCC4)o2)cc1 [CBK269728],62.5921
18,CC(NS(=O)(=O)c1cccc2c(S(=O)(=O)NC(C)c3ccccc3)cccc12)c1ccccc1 (stereo not shown) [CBK267717],110.425
19,Clc1ccc(CN2CCC(NCCCn3cccn3)CC2)cc1 [CBK304004],73.7827
20,CCCc1n[nH]c(-c2c(F)cccc2F)c1C(=O)OCC [CBK113546],99.2491
21,COC(=O)CCc1ccc(S(=O)(=O)N2CCCN(Cc3c(-c4ccccc4)noc3C)CC2)cc1 [CBK063011],87.1502
22,CC1(C)CC(O[Si](C)(C)OC2CC(C)(C)NC(C)(C)C2)CC(C)(C)N1 [CBK261942],60.2788
23,COc1ccc(C(=O)C(OC(=O)c2cc(O)nc3ccccc23)c2ccccc2)cc1 (stereo not shown) [CBK264083],81.459
24,COc1ccc(C(=O)N2CCN(Cc3cc(OC)ccc3OC)CC2)cc1 [CBK263032],88.4422
25,COc1ccc(S(=O)(=O)N(C)c2ccc(N3CCNCC3)c3ccccc23)cc1 [CBK022404C],51.0811
26,CCN1CCN(Cc2c(C(F)(F)F)[nH]c3ncccc23)CC1 [CBK285362],85.1841
27,O=S(=O)(c1ccc(-c2ccccc2)cc1)N1CCCN(CCCOC2CCCCO2)CC1 (stereo not shown) [CBK063137],54.3914

row,Structure (SMILES),% of control remaining
1,Cc1cc(O)c(C(=O)Nc2cccc(Cl)c2)c(=O)n1Cc1ccco1 [CBK291143],88.3957
2,FC(F)(F)c1cccc(OCCN2CCOCC2)c1 [CBK269669C],111.257
3,CN1CCN(C(=O)CCC2CCCO2)C(c2ccccc2)C1 (stereo not shown) [CBK282015],78.5928
4,Cc1c(-c2ccnc(N)n2)nnn1-c1ccc(Cl)cc1Cl [CBK018733],54.7195
5,CN(C)C(=O)c1ccc(-c2ccc3c(c2)COC(C2CCN(C(=O)CC(C)(C)c4ccccc4)CC2)O3)cc1 (stereo not shown) [CBK149765],61.1445
6,Cc1ccc(OC(C)C(=O)N(C)c2ccccc2)cc1 (stereo not shown) [CBK268645],82.0319
7,CCCN1CCc2c(sc3nc(SCC(=O)c4ccccc4)n(-c4ccccc4)c(=O)c23)C1 [CBK262587],91.0044
8,CCOC(=O)C1CCN(CCOc2ccc3ccccc3c2)CC1 [CBK270128C],88.4163
9,CCCC(=O)N1CCC(c2nc(Cc3cccs3)no2)C1 (stereo not shown) [CBK283034],113.763
10,Cc1ccc(CN2CC[C@H]3NC(=O)c4ccccc4OCC/C=C/C[C@H]3C2)cn1 [CBK292056],92.3048
11,CC1(C)CC(NC(=O)COc2ccc([N+](=O)[O-])cc2)CC(C)(C)N1 [CBK266806],80.4846
12,Cc1ccc(NC(=O)Cn2cnc3c2c(=O)n(C)c(=O)n3C)c(C)c1 [CBK133276],101.728
13,Cc1nc([N+](=O)[O-])cn1CCC(=O)Nc1ccccc1Oc1ccccc1Cl [CBK298319],86.8759
14,Cc1c(Cl)c([N+](=O)[O-])nn1CC(=O)N1CCN(Cc2ccccc2)CC1 [CBK261720],94.3878
15,COc1ccc(C(=O)N2CCc3ccccc32)c(OC)n1 [CBK200281],104.049
16,O=C(CN1CCCC2(CCN(C(=O)c3ccoc3)C2)C1)Nc1ccc(F)c(Cl)c1 (stereo not shown) [CBK132822],84.8537
17,CCCCn1nc2[nH]c(=O)cc(C(F)F)c2c1C [CBK288011],69.729
18,COc1ccc(C2C=C(C)Nc3nc(N)nn32)cc1 (stereo not shown) [CBK287906],108.748
19,O=C(O)c1cccc(C(=O)c2cccc(C(=O)O)c2)c1 [CBK263933],108.077
20,COc1ccc(CN2CCC(N3CCc4ccccc4C3)CC2)cc1OCc1ccccc1 [CBK264629G],75.5834
21,CC(C)CC1OC(NC2CCCCCC2)=NC1=O (stereo not shown) [CBK074901],44.983
22,O=C(CC(NCCO)C(=O)O)Nc1cccc(C(F)(F)F)c1 (stereo not shown) [CBK267065],104.113
23,Cc1ccnc(SCC(=O)Nc2sc3c(c2C(=O)Nc2ccccc2)CCCC3)n1 [CBK266348],104.286
24,O=C(c1cccnc1)C1CCN(C(=O)c2ccccc2F)CC1 [CBK283853],81.1477
25,CCC(=O)N1CCCC1c1nc(C)c2c(n1)N(Cc1ccccc1OC)CCC2 (stereo not shown) [CBK285642],104.442
